Screen size: about 48,000 compounds; about 450 (0.94%) were called active. Roughly 19% stayed inconclusive and do not appear here. The call rests on the fitted dose curve; in most records, active means well fitted inhibition curve with a large enough effect; inconclusive means small, poorly fitted or top-dose-only effect; inactive means no such curve, though single readings can be large or run the other way. The list shows a part of the results.
Experiment: Primary qHTS for Identification of Small Molecule Inhibitors of Huntingtin Promoter Activity; further: nearly all actives have a fitted effect of over 50% in size
Conditions: HEK293 HTT promoter firefly luciferase reporter (activity 0% = vehicle and -100% = no light), 24 h; series mostly up to 57.5 µM; activity change, negative = inhibition: at the top concentration
Method in brief: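 Quantitative HTS used concentration series of up to 57.5 uM final on HEK293 luciferase reporter cells, 24 h at 37 degrees C. Readout was Dual-Glo firefly luminescence.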

Activity change, negative = inhibition, inactive:
NC(=O)c1cn(Cc2c(F)cccc2F)nn1 0.109%
Cc1ccccc1Nc1c(-c2ccc(O)cc2)nc2c(C)cccn12 -16.1%
COc1ccc(NC(=O)CCS(=O)(=O)c2cc3c4c(c2)CCN4C(=O)CC3)cc1OC -21.1%
CCC(C(=O)Nc1ccc(F)cc1F)n1nc(-c2ccccc2)c2c(c1=O)CCCC2 (stereo not drawn) -23.2%
COc1cc2c(N3CCN(C(=O)Nc4ccc(OC(C)C)cc4)CC3)ncnc2cc1OCCCN1CCCCC1
Cc1nc(N)c(S(=O)(=O)c2ccccc2)c(Nc2ccc(Br)cc2)n1 4.78%
CC(=O)N1c2ccccc2CC1C(=O)N1CCN(c2cc(Cl)ccc2C)CC1 (stereo not drawn) -13.5%
Cc1cccc(OCC(=O)NCc2ccc3c(c2)CCN3C(=O)c2ccc(Cl)cc2)c1 -17.4%
O=C(c1cccn1-c1nnc(N2CCCC2)s1)N1CCN(c2ccc(F)cc2)CC1 -11.8%
O=C(c1ccc(F)cc1)N1CCN(CCc2ccncc2)CC1 0.0875%
COc1ccc(-c2nnc(SCC(=O)Nc3ccc(C)c(Cl)c3)nc2-c2ccc(OC)c(OC)c2)cc1OC -23.2%
CC(=O)Nc1ccc(NC(=O)CN2C(=O)CCc3cc(S(=O)(=O)N4CCCCC4)ccc32)cc1 -12%
O=C(Cn1cc(SCc2ccc(Cl)cc2)c2ccccc21)N1CCCC1 -13%
O=C(Nc1ccc(F)cc1)Nc1nnc(SCC(=O)N2CCCCC2)s1 -10.3%
CC(C(=O)O)c1ccc(-c2ccccc2)c(F)c1 (stereo not drawn) -10.6%
Cc1cccc(CNC(=O)CN2CC(C)Sc3ccccc32)c1 (stereo not drawn) -1.06%
Cc1c(Cl)cccc1-n1nnc(-c2nc(-c3ccc4c(c3)OCO4)no2)c1C 48.2%
COc1cccc(NC2=CC(c3ccc(C(C)C)cc3)N(c3cccc(OC)c3)C2=O)c1 (stereo not drawn) 29%
Cc1c(C(=O)N(Cc2cccc(Cl)c2)Cc2ccco2)oc2ccccc12 -17%
O=C(CSCc1ccc(F)cc1)NCc1ccc(F)cc1 -3.2%
Cc1cccc(CC(=O)N2CC(=O)Nc3ccc(F)cc3C2c2ccccc2)c1 (stereo not drawn) -28.1%
Cc1ccc(CNC(=O)CSc2c(C(C)C)cnc3c2c(=O)n(C)c(=O)n3C)cc1 -22.3%
COc1cc(NC(=O)CCCc2nnc3n(C)c(=O)c4sccc4n23)cc(OC)c1OC -13.7%
CCc1ccccc1NC(=O)Nc1ccc2snnc2c1 -23.4%
Cc1cccc(-n2ncc(C(=O)NCc3ccc4c(c3)OCO4)c2C2CCN(C(=O)OC(C)(C)C)CC2)c1 -28.8%
O=C(CSc1nc(Nc2ccc(F)c(F)c2)c2ccccc2n1)c1ccc(Cl)cc1 -9.57%
CCCCN(C)CCNC(=O)c1cc(-c2ccc(Cl)s2)nc2ccccc12 -14.9%
CCc1ccc(NC(=O)CN2C(=O)CC(c3ccccc3)Sc3ccccc32)cc1 (stereo not drawn) -35.4%
CC(C)(C)OC(=O)N1CCC(c2c(C(=O)NCCN3CCOCC3)cnn2-c2ccc(F)cc2F)CC1 -2.4%
CCOc1ccccc1Nc1nc2c(S(=O)(=O)c3ccc(C)cc3)nnn2c2ccsc12 -7.48%
CCOC(=O)c1c(-c2ccccc2)csc1NC(=O)c1nc(SCC)ncc1Cl -5.39%
CCc1cccc(C)c1NC(=O)CN1C(=O)c2cccc3cccc1c23 -12.6%
CCOc1cc(/C=C(\C#N)C(=O)Nc2ccc(OC)cc2)ccc1OCc1cc(=O)n2nc(CC)sc2n1 -1.65%
Cc1ccc2nc(CSc3nnc(NC(=O)c4ccc(C(C)(C)C)cc4)s3)cc(=O)n2c1 -0.53%
CC(=O)Nc1ccc(NC(=O)c2ncoc2-c2ccco2)cc1 11.2%
Cc1cccc(C)c1NC(=O)c1ccc(N)cc1 2.97%
COc1cccc(/C=C(\C#N)C(=O)Nc2ccc(NC(C)=O)cc2)c1OC -12.8%
Cc1oc(-c2cccc(Br)c2)nc1Cn1c(SCc2cccc(F)c2)nc2cccnc21 -24.7%
CCCCC(O)/C=C(C)/C=C/C=C/C(=O)N1CCCC1=O (stereo not drawn) -0.919%
COc1ccc(NC(=O)CCS(=O)(=O)c2ccc3c(c2)n(C)c(=O)c(=O)n3C)cc1Cl -13.7%
CN1CCN(C2=Nc3cc(F)ccc3Cc3ccccc32)CC1 -5.63%
COc1ccc2c(c1)NC(c1ccc(Cl)cc1)=NC(c1cccs1)=N2 -26%
Cc1ccc(S(=O)(=O)NCCSc2nnnn2-c2ccccc2)cc1 -7.89%
CC(C)(C)c1ccc(-c2nnc(-c3ccccc3NC(=O)c3cccc(C(F)(F)F)c3)o2)cc1 -8.4%
CCCN1C(=O)C(Cc2nc3ccccc3c(=O)n2CC)c2cc(Br)ccc21 (stereo not drawn) -19.4%
Cc1ccc(C)c(Cn2c(=O)n(Cc3ccccc3)c(=O)c3sc4ccccc4c32)c1 -15.6%
Cc1ccc(/C=C/c2onc(C)c2S(=O)(=O)N2CCC(C(=O)NCc3ccco3)CC2)cc1 -10.3%
Cc1ccc(CCNC(=O)c2ccc3c(c2)N(Cc2cc(C)ccc2C)C(=O)c2ccccc2S3=O)cc1 (stereo not drawn) -18.1%
CCN(CC)c1ccc(NC(=O)CN2C(=O)c3cccnc3Oc3ccccc32)c(C)c1 -4.98%
COc1ccc2c(c1)NC(c1ccc(F)cc1)=NC(c1ccc(F)cc1)=N2 23.8%
COc1cccc(N2CCN(C(=O)CN3CCSc4ccc(S(=O)(=O)N(C)C)cc43)CC2)c1 -24.6%
COc1ccc(NC(=O)C2CCN(C3=NS(=O)(=O)C(c4ccc(C)c(C)c4)=C3C)CC2)cc1OC -24%
COc1ccc(CNC(=O)CCS(=O)(=O)c2cc(Br)cc3c2N(C(=O)C2CC2)CC3)cc1 -0.467%
CCCCN(Cc1ccccc1)S(=O)(=O)c1ccc2c(c1)CCN2C(=O)C1CCC1 -0.276%
O=C(Cn1nc(Cc2cccnc2)c2ccccc2c1=O)N1CCN(c2ccc(F)cc2)CC1 -19.8%
COc1ccc(Nc2ncnc3onc(C)c23)cc1Cl -20%
CCCSCCCNC(=O)C1CCCN(C(=O)c2cnn(-c3ccccc3)c2-n2cccc2)C1 (stereo not drawn) -21.4%
CCN(C(=O)C(NS(=O)(=O)c1cccc2nsnc12)c1ccccc1)c1ccccc1 (stereo not drawn) -23.4%
COCCCNC(=O)CCCN1C(=O)CCn2nc(-c3cn(C)c4ccccc34)cc21 -4.82%
COc1ccc(-c2ccnc3c2c(=O)n(C)c(=O)n3C)cc1OC -2.58%
COc1ccc(OC)c(CNC(=O)CCS(=O)(=O)c2ccc3c(c2)oc(=O)n3C)c1 5.01%
Cc1ccc(NC(=O)[C@H](CSCc2ccccc2)N2Cc3ccccc3C2=O)cc1 -6.33%
Cc1cc(C)c(NC(=O)CN2C(=O)c3cccnc3Oc3ccc(Cl)cc32)c(C)c1 -1.12%
Cc1ccc(C(=O)N2c3nc(-c4ccco4)nn3C3(CCCCC3)[C@@H]3CCCC[C@@H]32)cc1 -24.5%
Cc1cc(Nc2ccc(C)c(Cl)c2)n2nc(-c3ccccc3)nc2n1 -2.02%
CC1CCN(S(=O)(=O)c2cccc(C(=O)NC3CCS(=O)(=O)C3)c2)CC1 (stereo not drawn) -31.1%
O=C(CCNS(=O)(=O)c1cccc2nsnc12)Nc1ccc(F)cc1 -1.66%
COc1ccc(-c2nc3cc(NC(=O)COc4ccc(F)cc4)ccc3o2)cc1 4.5%
Cc1csc2nc(-c3cccc(NC(=O)c4ccc(S(N)(=O)=O)cc4)c3)cn12 24.9%
Cc1ccc2cccc(NC(=O)c3ccc(-c4ccc(Cl)cc4Cl)o3)c2n1 -0.352%
COc1ccc(OC)c(CNC(=O)c2cc(=O)[nH]c3ccc(S(=O)(=O)N4CCCCC4C)cc23)c1 (stereo not drawn) -10.2%
CCOc1ccc(-c2cc(C)n3nc(C(=O)Nc4cc(Cl)ccc4O)cc3n2)cc1 -4.82%
COc1cccc(NC(=O)Cn2c(=O)n(Cc3nc(-c4ccccc4)no3)c(=O)c3ccccc32)c1 -20.7%
COc1ccccc1/C=C(\C#N)c1nc(-c2cc3ccccc3oc2=O)cs1 7.13%
CCC(=O)Nc1ccc(S(=O)(=O)NCc2cccn2Cc2cccc(C)c2)cc1 -21.6%
COc1ccc(S(=O)(=O)NCCc2sc(-c3ccccc3)nc2C)cc1OC -13%
CCOC(=O)N1CCC(NC(=O)c2cnn(-c3ccccc3)c2C2CCN(C(=O)OC(C)(C)C)CC2)CC1 -2.21%
O=C(NCCC1=CCCCC1)c1ccc2c(c1)ncn2-c1cccc(Cl)c1 21.3%
CCc1ccccc1NC(=O)CSc1ncc2c(n1)-c1ccccc1N(C)S2(=O)=O -29.2%
Cc1cccc(N2CCN(C(=O)Cc3c(C(=O)O)c(C)cn3C)CC2C)c1 (stereo not drawn) -21.2%
COc1ccc(N2CCN(C(=O)C3CCCN(S(=O)(=O)c4ccc5c(c4)oc(=O)n5C)C3)CC2)cc1 (stereo not drawn) -18.3%
COC(=O)c1c(NC(=O)COc2ccc(C(C)C)cc2)sc2c1CCCC2 10.6%
COc1ccc(C2CC(=O)Nc3c2c(C)nn3-c2nc(C)cc(C)n2)c(OC)c1OC (stereo not drawn) -5.54%
COc1ccccc1CCNC(=O)C1(c2cccs2)CCOCC1 5.71%
CCc1cccc(NC(=O)CCn2nc(C)cc2C)c1 -4.65%
CCC(=O)NCCc1sc2nc(-c3ccc(OC)cc3)nn2c1C 8.5%
CCCS(=O)(=O)Nc1cccc(-c2cn3ccsc3n2)c1 9.77%
COc1ccc(CCNC(=O)c2ccc3nc(CCc4ccccc4)oc3c2)cc1OC -24.7%
CCCCc1cc2ccccc2c(OCCN(C)C)n1 -8.6%
COc1ccc(OC)c(NC(=O)c2nnn(CC(=O)Nc3ccc(C(C)C)cc3)c2N)c1 -22.3%
COc1ccc(NC(=O)Cn2cnc3c(nc4n3CCCCC4)c2=O)cc1Cl -9.95%
Cc1ccc(N2C(=O)CSC23C(=O)N(CC(=O)NCCc2ccccc2)c2ccccc23)cc1 (stereo not drawn) -12.5%
CCC1CN(C(=O)N2CCC(C(=O)NCc3cccs3)CC2)c2ccccc2O1 (stereo not drawn) -24.8%
Cc1ccc(NC(=O)c2ccc(-c3ccccc3)s2)cc1 18.2%
COc1cccc(CNCc2c(C(=O)O)n(Cc3ccc(C)cc3)c3cc(C)ccc23)c1OC -19.6%
CC(=O)c1ccc(NC(=O)c2sc(-n3nc(C)c(Cc4ccc5c(c4)OCO5)c3C)nc2C)cc1 5.74%
COc1ccc(N2CCN(C(=O)c3noc4c3CCCCC4)CC2)cc1 8.68%
O=C(NCCc1nc2ccccc2n1Cc1ccc(Cl)cc1)c1ccccc1 -25.8%

Source: PubChem BioAssay AID1508623 (National Center for Advancing Translational Sciences (NCATS), 2021)
